This is one part of the list. Viral Rep nickase domains cut single-stranded DNA in vitro (1 h at 37 °C, 3 µM enzyme); the outer parts of the 90-letter strands are left off. Uncut reads are compared with the no-enzyme pool on a log2 scale; the lower, the more was cut; hits are not called. Shares of all reads are compared; uncut strands gain when others are lost, and binding without cutting may add a little.
system: T1, Rep nickase domain of tomato golden mosaic virus; experiment: uncleaved DNA left, log2 of reads against the no-enzyme library (log2 ratio); higher = less cleavage (more negative = more Rep cleavage of the k-mer); sequences stand for … in CTCGTCCG…ACCGGAGA
T1 sequence (residues 1-124, tag not shown): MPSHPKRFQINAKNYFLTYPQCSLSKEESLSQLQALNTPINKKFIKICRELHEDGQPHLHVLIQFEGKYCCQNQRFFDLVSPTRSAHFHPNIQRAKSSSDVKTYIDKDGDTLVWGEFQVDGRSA
Method: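 A pool of 90-nt single-stranded DNAs with seven random bases just before the constant AC of the nick site (name = the seven bases) was cut by 3 µM recombinant His6-SUMO-tagged Rep nickase domain (300 nM DNA, 50 mM HEPES pH 8.0, 50 mM NaCl, 1 mM MnCl2, 1 h, 37 °C, three replicates). Uncut DNA was amplified and sequenced.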

| Sequence | uncleaved DNA left (log2) |
| --- | --- |
| AACGATA | 0.0667 |
| AAGTAGC | 0.137 |
| TATAACT | -0.0257 |
| ACTCCTT | -0.0645 |
| TTAAATG | 0.0529 |
| CAGCGTA | -0.063 |
| AGTTTAC | 0.0553 |
| GATTAAG | -0.0946 |
| GGCCAGA | -0.107 |
| GACCTCG | -0.09 |
| CTAGACC | 0.00183 |
| CGGATAT | -0.00704 |
| ATACAGA | 0.0214 |
| GGCGCCG | 0.0764 |
| ATACTGG | 0.0194 |
| ATGTGAT | 0.0968 |
| CCGCTCA | -0.243 |
| CATCGTC | -0.0498 |
| GAGAAAG | 0.16 |
| GCATCCC | -0.0775 |

| Sequence | uncleaved DNA left (log2) |
| --- | --- |
| GTACTTC | 0.151 |
| TTCATCA | 0.0992 |
| GCGATCA | -0.0646 |
| ACCGTCT | -0.0866 |
| GGGCGGT | 0.0464 |
| GATGTCT | 0.00522 |
| AGAGCTT | 0.0303 |
| GTTCATA | -0.0424 |
| TCCCTCT | -0.16 |
| TCCTGGA | 0.0424 |
| TGATTTT | -0.0696 |
| ACGGGAC | -0.0353 |
| TCGGAGA | -0.0854 |
| CTTAAGA | -0.0323 |
| GTTCGGC | 0.0701 |
| GACGTAG | 0.0745 |
| GATTTGG | 0.0169 |
| ACTGGTG | 0.0806 |
| AATAGCG | -0.123 |
| ACCACGG | 0.0896 |

Source: the supplement of paper PMC7826260
